Reference: US9975943B2, “Polypeptides” (AFFIBODY AB, priority 2013, dated 2018)

Key:
[1] = target: T1, human FcRn-eGFP transduced HeLa cells (Homo sapiens, UniProt P55899); experiment: Blocking of IgG-FcRn immunofluorescence staining (Example 5); assay type: cell-based; details: 100 nM Alexa647 human IgG; 1-1000 nM His6-tagged Z variant; pH 6.0
T1 construct: expressed in transfected cells; host or cells: HeLa cervix adenocarcinoma cells (lentiviral transduction), formaldehyde-fixed and saponin-permeabilised
Procedure: (§1) Human or murine FcRn-eGFP transduced HeLa cells were prepared as described in Example 4. […] The cells were incubated for 1 h at 37° C. on a shaker in the dark, washed with 2×100 μl PBS-casein pH 6.0 and re-suspended in 180 μl of PBS, pH 6.0, plus 1% BSA. Data from 10,000 cells/well (except somewhat fewer cells for mouse 100 nM mIgG-Alexa647) were obtained using a Gallios Flow Cytometer (Beckman Coulter) and the data was analyzed using Kaluza software (Beckman Coulter).

[2] = target: T2, murine FcRn-eGFP transduced HeLa cells (Mus musculus, UniProt Q61559, INS109QKRG); experiment: as above; assay type: cell-based; details: 100 nM Alexa647 mouse IgG; 1-1000 nM His6-tagged Z variant; pH 6.0
T2 construct: expressed in transfected cells; host or cells: HeLa cervix adenocarcinoma cells (lentiviral transduction), formaldehyde-fixed and saponin-permeabilised
T2 sequence (Q61559 with tags, fused parts or gaps INS109QKRG): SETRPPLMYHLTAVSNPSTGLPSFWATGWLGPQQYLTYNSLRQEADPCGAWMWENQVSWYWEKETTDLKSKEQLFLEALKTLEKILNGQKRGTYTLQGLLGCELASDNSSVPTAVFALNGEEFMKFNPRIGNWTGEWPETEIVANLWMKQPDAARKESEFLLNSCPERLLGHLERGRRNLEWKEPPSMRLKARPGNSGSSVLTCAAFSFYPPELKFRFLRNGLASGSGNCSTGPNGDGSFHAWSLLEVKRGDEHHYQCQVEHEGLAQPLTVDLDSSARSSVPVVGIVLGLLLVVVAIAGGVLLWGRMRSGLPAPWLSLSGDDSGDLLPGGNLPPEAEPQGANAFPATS
T2 sequence (P01887 21-119 partner): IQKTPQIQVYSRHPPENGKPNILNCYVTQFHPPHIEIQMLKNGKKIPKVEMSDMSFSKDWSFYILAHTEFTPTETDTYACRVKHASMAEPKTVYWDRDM
Procedure: as §1

human FcRn [3] = target: T3, human FcRn (Homo sapiens, UniProt P55899); experiment: Biacore binding at pH 6.0 and dissociation at pH 6.0 vs pH 7.4; set-up: made in house; host or cells: human SKOV-3 cells, lentivirally transduced, secreted; purified on immobilized human IgG; details: comparison among the seventeen Z variants
Procedure: (§2) The interaction of FcRn binding His6-tagged Z variants with human FcRn was analyzed in a Biacore 2000 instrument (GE Healthcare). Human FcRn was immobilized in a flow cell on the carboxylated dextran layer of a CM5 chip surface (GE Healthcare). The immobilization was performed using amine coupling chemistry according to the manufacturer's protocol and using HBS-EP (GE Healthcare) as running buffer. One flow cell surface on the chip was activated and deactivated for use as blank during analyte injections. In the two binding experiments presented below, McIlvaines phosphate-citrate buffer pH 6.0 supplemented with 0.005% Tween-20 (0.005% PCT) was used as running buffer. In all experiments, a flow rate of 50 μl/min was used.
In one experiment, the dissociation at pH 6.0 was compared to the dissociation at pH 7.4. His6-tagged Z variants and a human monoclonal IgG1 were diluted in running buffer to a final concentration of 250 nM or 2.5 nM, respectively, and injected over the FcRn chip for 1 minute using the co-inject procedure. The second injection of the co-inject procedure, representing the dissociation phase of the interactions, contained either running buffer (pH 6.0) or 0.005% PCT pH 7.4. […] IgG was allowed to dissociate for 4 minutes before equilibration. […] The results were analyzed in BiaEvaluation software 4.1 (GE Healthcare). […]

human FcRn [4] = target: T3, human FcRn; experiment: Biacore kinetic analysis of His6-tagged Z variants; assay type: binding; set-up: made in house; host or cells: human SKOV-3 cells, lentivirally transduced, secreted; purified on immobilized human IgG; details: hFcRn, pH 6.0, Langmuir 1:1 model, approximate
Procedure: as §2
In another experiment, approximate kinetic constants (kon and koff) and affinities (KD) were determined for a subset of His6-tagged Z variants. Three concentrations of the Z variants were injected for 1 minute followed by dissociation in running buffer for 1 minute. The surfaces were equilibrated with running buffer during 7.5 minutes before the start of next cycle. […] Kinetic constants were calculated from the sensorgrams using the Langmuir 1:1 model of BiaEvaluation software 4.1 (GE Healthcare).

T3 sequence (P55899 24-290): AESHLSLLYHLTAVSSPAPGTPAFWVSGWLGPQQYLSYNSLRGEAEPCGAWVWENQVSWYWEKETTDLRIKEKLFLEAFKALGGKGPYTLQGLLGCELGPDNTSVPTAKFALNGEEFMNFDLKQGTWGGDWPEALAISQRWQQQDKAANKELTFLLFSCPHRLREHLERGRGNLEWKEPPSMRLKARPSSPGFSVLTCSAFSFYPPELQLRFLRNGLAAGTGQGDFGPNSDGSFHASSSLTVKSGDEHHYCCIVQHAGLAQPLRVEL
T3 sequence (P61769 21-119 partner): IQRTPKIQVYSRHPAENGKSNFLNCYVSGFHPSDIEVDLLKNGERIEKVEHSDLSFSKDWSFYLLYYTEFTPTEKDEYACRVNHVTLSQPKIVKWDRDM
T1 sequence (P55899 24-365): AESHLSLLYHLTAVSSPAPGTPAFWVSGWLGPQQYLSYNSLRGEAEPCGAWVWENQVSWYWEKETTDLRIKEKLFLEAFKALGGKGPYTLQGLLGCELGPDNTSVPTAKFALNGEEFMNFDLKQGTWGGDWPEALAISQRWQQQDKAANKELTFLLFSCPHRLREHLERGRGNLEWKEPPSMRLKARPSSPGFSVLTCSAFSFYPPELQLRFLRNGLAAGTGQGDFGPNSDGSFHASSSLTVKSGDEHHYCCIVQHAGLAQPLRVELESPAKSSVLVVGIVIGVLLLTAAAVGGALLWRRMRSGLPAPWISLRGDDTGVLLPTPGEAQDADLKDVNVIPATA
T1 sequence (P61769 21-119 partner): as the sequence (P61769 21-119 partner) above

Z07918: FcRn binding Z variant, 58 amino acid residues, from phage display selection (VDAKYAKEQDAAAHEIRWLPNLTFDQRVAFIHKLADDPSQSSELLSEAKKLNDSQAPK; Engineered FcRn binding polypeptide)
blocking of hIgG binding to hFcRn [1]: effectively blocked hIgG binding to hFcRn (FIG. 6, Panel A) in a dose dependent manner | blocking of mIgG binding to mFcRn [2]: also blocked mIgG binding to mFcRn (FIG. 6, Panel B) although less efficiently compared to hIgG-binding | dissociation curves (human FcRn [3]): slowest dissociation curves | Kd (human FcRn [4]): 0.016 µM
